Measurements reported in the supplement of paper PMC3334620.
Over roughly 33,000 sequences, “E-score (-0.5 to 0.5)” has its median near -0.056; the highest 2% begin near 0.38. This is one part of the list.

Biological target: Stb4 (UniProt P50104)
Experiment: PBM E-score (8-mer binding enrichment) (E-score (-0.5 to 0.5)); higher = stronger / more preferred TF binding; most listed sequences are background and not binding sites
Settings: protein concentration: 200 nM; construct: GST-DNA-binding domain
Method: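 Universal 'all 10-mer' protein binding microarrays (Agilent AMADID 015681) probed with GST-tagged S. cerevisiae TFs (full-length or DBD) made by in vitro transcription/translation (PURExpress), about 100-200 nM. Bound TF was detected with fluorescent anti-GST. Each ungapped 8-mer (which stands for itself and its reverse complement) is scored by the PBM enrichment score (E-score), a modified Wilcoxon-Mann-Whitney statistic from -0.5 to +0.5, computed with the Universal PBM Analysis Suite. Scale: above 0.35 generally sequence-specific binding.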

Row | Sequence | PBM E-score
1 | ATGACAAC | 0.0244
2 | AAGCGACT | -0.145
3 | GCTCAACA | -0.105
4 | TGCATAAA | -0.0897
5 | AAGACTCT | -0.224
6 | GGTTGTCA | -0.00772
7 | AGGACCTC | -0.198
8 | GCATTTGA | -0.0256
9 | ACTTCGTC | 0.0446
10 | AGTTCCGA | 0.474
11 | ACGGGGTA | -0.047
12 | CCGACTTC | 0.289
13 | CCTTAACA | -0.317
14 | AGGGGATA | -0.24
15 | CCGCAATC | 0.185
16 | AGAGTCTC | -0.0128
17 | ATTTAGTG | -0.0726
18 | AGGTGTAT | -0.0407
19 | ATGATATA | -0.146
20 | CTACTCCC | 0.0363
21 | CGTAAACG | 0.0148
22 | CTTGGGAC | -0.15
23 | ATAGCACA | -0.0242
24 | ACGGTTAC | 0.163
25 | ATACAAAT | 0.151

Row | Sequence | PBM E-score
26 | TAATAGCA | -0.255
27 | CGATGAAG | -0.0156
28 | ATCTTCCG | 0.436
29 | ACCGATCT | 0.204
30 | AAGCATCG | 0.0371
31 | AGACGAAT | -0.215
32 | ATTTCTTA | 0.00967
33 | GCCCCCGA | 0.214
34 | ACTGTTGG | -0.15
35 | CTACTAGA | -0.097
36 | CCCTTTAG | -0.413
37 | CTAACCAG | -0.125
38 | CAAATATG | -0.00501
39 | AAGACGAA | -0.171
40 | ATCTCTCC | -0.0875
41 | TAATGCAA | -0.26
42 | AAACAGGA | -0.0855
43 | GCCAACGC | -0.192
44 | GATCAATC | 0.0474
45 | CAGCGCTG | -0.0064
46 | CCGTAGGA | -0.0768
47 | GACCGCCC | 0.12
48 | ACCGTTTC | 0.132
49 | CTACCGTA | 0.0709
50 | AAGTCTGT | -0.285

Row | Sequence | PBM E-score
51 | CGGGTTGC | 0.107
52 | CCGACAGC | 0.226
53 | ATACGAAG | -0.0224
54 | AAATAAAC | 0.0562
55 | CGGATCGC | 0.361
56 | GGACGGCA | 0.217
57 | GTGTGACA | -0.127
58 | CGTGGCCA | -0.199
59 | CCATTTTA | 0.0607
60 | GGAAGGCA | 0.0907
61 | AATGCGCC | 0.139
62 | ATTTCTCC | 0.129
63 | AACTTTCT | 0.0507
64 | ATAGTAGC | 0.0449
65 | ATCGCCGC | -0.0565
66 | GTCCGCGA | 0.113
67 | AAGGTGCC | 0.0178
68 | ACGGCTTC | 0.0487
69 | GAGAATGA | -0.0884
70 | GTTGATAA | -0.166
71 | GGCCTCCA | -0.12
72 | CGACCACG | 0.0297
73 | CTGCAGCC | 0.0108
74 | AAGCTGAA | -0.00862
75 | GGAGCACC | 0.0264

Row | Sequence | PBM E-score
76 | ATCGAGTG | 0.0369
77 | ACTTGCCG | 0.279
78 | CTGACAAC | -0.154
79 | AGTATGGC | 0.00537
80 | ATCAGGAC | -0.194
81 | AGGTTTCG | 0.0127
82 | CTTCGTCC | -0.138
83 | GAGCGGTA | -0.00363
84 | ACAAAAGA | 0.0966
85 | TAAAGCGA | -0.0633
86 | ATGGGTAC | -0.287
87 | CACGATGC | -0.134
88 | AGTTTAGG | -0.238
89 | AACCATCT | -0.118
90 | TCTTGTCA | -0.233
91 | AACGTCCG | 0.182
92 | GATCACTA | 0.0137
93 | CGATAATA | 0.134
94 | TAAATTTA | 0.128
95 | AGTCCGCA | 0.025
96 | CGTCCGTC | 0.0154
97 | TGGTGTAA | -0.148
98 | AAACTACG | 0.0415
99 | AACTAAAA | 0.0244
100 | CACTCCCA | -0.323

Row | Sequence | PBM E-score
101 | CGCATGAG | -0.261
102 | AACGTATA | -0.226
103 | ATTCGTCG | 0.0475
104 | ATTACAAT | -0.188
105 | CCCCTCGC | -0.157
106 | AATGCAGA | -0.0762
107 | CGTTCGAA | -0.0669
108 | GCTGATAA | 0.131
109 | GGACTACA | 0.0207
110 | CGGAAAAC | 0.37
111 | CATAGATC | -0.208
112 | ACGCAACA | -0.0435
113 | GATCACCA | -0.056
114 | CTCAGCAC | -0.051
115 | CACCAGCA | -0.143
116 | ATGGCTGG | -0.193
117 | ACATCCGT | 0.348
118 | CCGGGGTC | 0.288
119 | ATCAAGGC | -0.111
120 | TACGCGTA | -0.119
121 | GTGGAGAA | -0.184
122 | CCTTCGCA | -0.236
123 | GCTACCTA | 0.0157
124 | GTTCCCTA | -0.00442
125 | ACTACGAA | -0.184

Row | Sequence | PBM E-score
126 | GTGATGCA | -0.0269
127 | AAACGGCC | 0.151
128 | CCTGGAAA | -0.107
129 | CGGGTTGA | 0.212
130 | AGACCGCC | -0.153
131 | ATCACCAA | -0.232
132 | CCCGGACG | 0.163
133 | ATCCCACC | 0.202
134 | CGCATTTA | 0.037
135 | CCCAGAGG | -0.237
136 | ATCCGAAG | 0.48
137 | AGGCGCAA | -0.0602
138 | TTCCGCAA | 0.308
139 | ATATCCCG | 0.306
140 | CTCAGATA | -0.00864
141 | AACTTCGA | -0.11
142 | AAGTATGT | -0.23
143 | CTTATTGC | -0.262
144 | CAGGCGCA | -0.235
145 | AATAACAT | 0.113
146 | AGAACGTG | -0.0529
147 | CGGTGGGC | 0.00684
148 | CAACCTTG | -0.234
149 | AGCAGTGC | -0.162
150 | TTGCGCAA | -0.218

Row | Sequence | PBM E-score
151 | TAGGCGGA | 0.235
152 | TAGGGTCA | -0.169
153 | ACATCGAC | -0.0835
154 | AATTTACT | -0.138
155 | GTAACATA | 0.0921
156 | CCACTATC | -0.00318
157 | GTTTGCTA | -0.0608
158 | GAACTTAA | 0.0793
159 | AGGCACGC | -0.0406
160 | TTAACGAA | -0.0137
161 | ATCATTGA | -0.111
162 | CTTCCGCC | 0.297
163 | ATGAGAGC | -0.0665
164 | GTATGACA | -0.0492
165 | CATAGTAC | -0.0194
166 | GGTTCCGA | 0.468
167 | GAACCCTC | 0.114
168 | CGAACTAG | 0.121
169 | CAGTTTCA | -0.239
170 | CGTCTATC | -0.00175
171 | CTTGTAGA | -0.174
172 | GTACCCAC | 0.169
